Reference: PubChem BioAssay (NCATS)
The shares of active, inactive and inconclusive entries below differ from those in the screen. Where the call is inconclusive, the potency comes from a doubtful curve fit. Activity calls are given as the source filed them. The call rests on the fitted dose curve; in most records, active means well fitted curve in the direction sought with a large enough effect; inconclusive means small, poorly fitted or top-dose-only effect, or another doubt; inactive means no such curve, though single readings can be large; an effect the other way counts as inactive or inconclusive.

What was measured:
[1] = Viability qHTS for spleen associated tyrosine kinase inhibitor (SYKi) naive MV4-11 cells (AID 1963823); conditions: MV4-11 AML viability, CellTiter-Glo luminescence, 72 h; series mostly up to 45 µM; further: nearly all actives have a fitted effect of over 40% in size
Summary of the method: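 CellTiter-Glo luminescence, 10 min room-temperature incubation, gave viability. Cells: naive MV4-11 (500/well), treated 72 hr at 37 C, 5% CO2.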

[2] = Cellular viability qHTS for adrenocortical cancer (ACC) cell line NCI-H295R (AID 1963990); conditions: CellTiter-Glo ATP luminescence, 48 h; series mostly up to 46.1 µM; further: nearly all actives have a fitted effect of over 60% in size
Summary of the method: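 Readout: CellTiter-Glo luminescence, 20 min RT. Exposure: 48 h, 37C/5% CO2. Cells: NCI-H295R, ITS-DMEM serum-free. Range: up to 46 uM. Analysis: 4PL fit, IC50 plus efficacy.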

[3] = Viability qHTS for spleen associated tyrosine kinase inhibitor (SYKi) drug resistant MV4-11 cells (AID 1963824); conditions: SYKi-resistant MV4-11 viability, CellTiter-Glo, 72 h; series mostly up to 45 µM; further: nearly all actives have a fitted effect of over 35% in size
Summary of the method: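 CellTiter-Glo luminescence, read 10 min after reagent addition, reports viability after a 72 hr compound exposure. Cells are an MV4-11 line made resistant to SYK inhibition, seeded at 500 per well onto compound-containing plates.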
Potency means the concentration at half of the fitted maximal effect; tags describe the fitted curve by direction and shape.

With `CC1=C2C[C@H]3[C@@H](CC[C@@H]4C[C@H](NS(C)(=O)=O)CC[C@@]43C)[C@@H]2CC[C@@]2(C1)O[C@@H]1C[C@H](C)CN[C@H]1[C@H]2C` as the molecule, how does the Potency [1] read?
Its Potency is active: 9.34 µM.

And the Potency [2]?
The Potency was active: 17.8 µM.

What does the source list for `CC(C)C(=O)OCc1cccc(OC(=O)[C@@H]2N3C(=O)[C@@H](NC(=O)Cc4ccccc4)[C@H]3SC2(C)C)c1`?
Potency [1]: inconclusive: 26.6 µM [cytotoxic, single point]; Potency [2]: inconclusive: 6.51 µM [cytotoxic, partial curve]

With `C=CCN1C[C@H](C(=O)N(CCCN(C)C)C(=O)NCC)CC2c3cccc4[nH]cc(c34)C[C@H]21` (some centres not stated) as the molecule, how does the Potency [1] read?
The Potency was inconclusive: 11.8 µM [cytotoxic, partial curve].

And the Potency [2]?
Its Potency is inconclusive: 35.5 µM [cytotoxic, single point].

Which Potency [1] does the source give for `CC(=O)OC(C)C[N+](C)(C)C` (configuration not stated) here?
The Potency was inconclusive: 0.106 µM [rising, full curve, poor fit].

What about the Potency [2] of the same molecule?
The Potency was “inactive”.

What does the source list for `CCc1cc(/C(C)=N/OCc2ccc(C3CCCCC3)c(C(F)(F)F)c2)ccc1CN1CC(C(=O)O)C1`?
Potency [1]: active: 18.6 µM; Potency [2]: inconclusive: 22.4 µM [cytotoxic, partial curve]

With `CCNC(=O)NCc1cccc(Cl)c1` as the molecule, how does the Potency [1] read?
Its Potency is “inactive”.

And the Potency [2]?
Its Potency is “inactive”.

Which results are given for `CCOC(=O)C1=CCCCC1S(=O)(=O)Nc1ccc(F)cc1Cl` (configuration not stated)?
Potency [1]: active: 20.9 µM; Potency [2]: inconclusive: 15.8 µM [cytotoxic, partial curve]

Which Potency [1] does the source give for `COc1ccc(S(=O)(=O)N(C(C)=O)c2ccccc2/C=C/c2cc[n+]([O-])cc2)cc1` here?
The Potency was active: 0.934 µM.

And the Potency [2]?
Its Potency is active: 1.41 µM.

With `COC(=O)C1=C(C)NC(c2ncc(F)cc2F)=N[C@H]1c1ccc(F)cc1Cl` as the molecule, how does the Potency [1] read?
Its Potency is active: 20.9 µM.

And the Potency [2]?
The Potency was inconclusive: 25.1 µM [cytotoxic, partial curve, poor fit].

With `CN1CCCCC1CCN1c2ccccc2Sc2ccc(S(C)=O)cc21` (configuration not stated) as the molecule, how does the Potency [1] read?
The Potency was inconclusive: 33.5 µM [cytotoxic, single point].

What about the Potency [2] of the same molecule?
The Potency was inconclusive: 29.1 µM [cytotoxic, single point].

Which Potency [1] does the source give for `CC[C@@]1(O)C(=O)OCc2c1cc1n(c2=O)Cc2c-1nc1ccccc1c2CCNC(C)C` here?
The Potency was active: 0.0059 µM.

What about the Potency [2] of the same molecule?
The Potency was inconclusive: 1.84 µM [cytotoxic, partial curve, poor fit].

Which Potency [1] does the source give for `CN1CC(=O)NC1=N` here?
Its Potency is “inactive”.

And the Potency [2]?
The Potency was “inactive”.

For `OCc1ccc(Cl)cc1Cl`, which Potency [3] is on record?
Its Potency is inconclusive: 16.8 µM [cytotoxic, partial curve, poor fit].

With `O=C(CC1NCCC[C@H]1O)Cn1cnc2cc(Br)c(Cl)cc2c1=O` (some centres not stated) as the molecule, how does the Potency [3] read?
Its Potency is “inactive”.

With `Cc1ccccc1-c1cc(N2CCN(C)CC2)ncc1N(C)C(=O)C(C)(C)c1cc(C(F)(F)F)cc(C(F)(F)F)c1` as the molecule, how does the Potency [3] read?
Its Potency is “inactive”.

With `C=Cc1ccc(O[C@@H]2O[C@H](CO[C@@H]3O[C@@H](C)[C@H](O)[C@@H](O)[C@H]3O)[C@@H](O)[C@H](O)[C@H]2O)cc1` as the molecule, how does the Potency [3] read?
The Potency was “inactive”.

For `C=CC(C)(C)c1[nH]c2ccccc2c1C1=C(O)C(=O)C(c2c[nH]c3c(CC=C(C)C)cccc23)=C(O)C1=O`, which Potency [3] is on record?
Its Potency is inconclusive: 18.4 µM [cytotoxic, single point].

With `O=C(NCc1nc2ccccc2c(=O)n1-c1ccc(F)cc1)Nc1ccc(Cl)c(C(F)(F)F)c1` as the molecule, how does the Potency [3] read?
The Potency was active: 20.6 µM.

Which Potency [3] does the source give for `CC(=O)NCCNc1cc(Cl)nn2c(-c3cccc(S(=O)(=O)N(C)C)c3)c(C)nc12` here?
The Potency was active: 1.64 µM.

For `COC(=O)C12C(=O)C(C)=C(O)C1(C)C(C)=CC1C34CCC(OC3=O)C(C)(C)C4CCC12C` (configuration not stated), which Potency [3] is on record?
Its Potency is “inactive”.

For `O=C1NCc2nc3ccccc3c(=O)n2C1Cc1c[nH]c2ccccc12` (configuration not stated), which Potency [3] is on record?
Its Potency is inconclusive: 14.3 µM [cytotoxic, single point].

Which Potency [3] does the source give for `CC1CCC23COC(=O)C2=CC(O)CC3C1(C)CCC1=CC(=O)OC1O` (configuration not stated) here?
The Potency was “inactive”.

For `C/C(=C\CCC(C)CCO)C(=O)OC[C@H]1O[C@@H](O[C@@H]2OC=C(C(=O)O)[C@H]3CC[C@](C)(O)[C@@H]23)C(O)[C@@H](O)C1O` (some centres not stated), which Potency [3] is on record?
The Potency was “inactive”.

Which Potency [3] does the source give for `O=C(O)C[C@@H](NC(=O)c1cc(-c2ccc(-c3ccncc3)cc2)cs1)c1ccccc1` here?
Its Potency is inconclusive: 14.6 µM [cytotoxic, partial curve, poor fit].

With `CC[C@@]1(c2ccccc2)NC(=O)N(C)C1=O` as the molecule, how does the Potency [3] read?
Its Potency is “inactive”.
